{
  "source": "the supplement of paper PMC8728848",
  "binders": {"B1": {"name": "LFA (Limax flavus) (protein)", "chain": "MSVLFLAASFLLLASFELVAAQGCPRQDPGDWIVIQRRLNADVNFYRGWADYKHGFGDLRCNFWLGNEKIHQLTSHGRYKLRVEFTFNNKSYFAEYSTFKILGEADKYKLQVGGYSGNAGDALTFHNGMAFSTNDRDNDADSIDCAKVYHGAWWYKTCHESNLNGKWGSKKYGEGLNWKAKTTFTATATSSLLKIKALK"}},
  "assay_in_all_cases": "glycan array binding signal (z-score within array); higher = stronger binding",
  "settings_in_all_cases": "glycan notation: IUPAC condensed, linker removed",
  "key": {"[1]": {"target": "Gal(b1-4)GlcNAc(b1-2)Man(a1-6)[GlcNAc(b1-2)Man(a1-3)]Man(b1-4)GlcNAc(b1-4)GlcNAc", "procedure,_shortened": "(§1)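 The binding signal is a Z-score computed within each array. Data were drawn from 3228 arrays in the Consortium for Functional Glycomics database, restricted to those with a known protein sequence. Scores were averaged over arrays of the same protein sequence at different concentrations or buffers, and over linkers, and negative values can be taken as non-binding.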"}, "[2]": {"target": "Gal(b1-4)GlcNAc(b1-2)Man(a1-6)[Man(a1-3)]Man(b1-4)GlcNAc(b1-4)GlcNAc", "procedure,_shortened": "as §1"}, "[3]": {"target": "Gal(b1-4)GlcNAc(b1-2)[Gal(b1-4)GlcNAc(b1-4)]Man(a1-3)[Gal(b1-4)GlcNAc(b1-2)Man(a1-6)]Man(b1-4)GlcNAc(b1-4)GlcNAc", "procedure,_shortened": "as §1"}, "[4]": {"target": "Gal(b1-4)GlcNAc(b1-2)[Gal(b1-4)GlcNAc(b1-4)]Man(a1-3)[Gal(b1-4)GlcNAc(b1-2)[Gal(b1-4)GlcNAc(b1-6)]Man(a1-6)]Man(b1-4)GlcNAc(b1-4)GlcNAc", "procedure,_shortened": "as §1"}, "[5]": {"target": "Gal(b1-4)GlcNAc(b1-2)[Gal(b1-4)GlcNAc(b1-4)]Man(a1-3)[GlcNAc(b1-4)][Gal(b1-4)GlcNAc(b1-2)Man(a1-6)]Man(b1-4)GlcNAc(b1-4)GlcNAc", "procedure,_shortened": "as §1"}, "[6]": {"target": "Gal(b1-4)GlcNAc(b1-2)[Gal(b1-4)GlcNAc(b1-4)]Man(a1-3)[GlcNAc(b1-4)][Gal(b1-4)GlcNAc(b1-2)[Gal(b1-4)GlcNAc(b1-6)]Man(a1-6)]Man(b1-4)GlcNAc(b1-4)GlcNAc", "procedure,_shortened": "as §1"}, "[7]": {"target": "Gal(b1-4)GlcNAc(b1-2)[Gal(b1-4)GlcNAc(b1-6)]Man(a1-6)[Gal(b1-4)GlcNAc(b1-2)Man(a1-3)]Man(b1-4)GlcNAc(b1-4)GlcNAc", "procedure,_shortened": "as §1"}, "[8]": {"target": "Gal(b1-4)GlcNAc(b1-2)[Gal(b1-4)GlcNAc(b1-6)]Man(a1-6)[Gal(b1-4)GlcNAc(b1-2)Man(a1-3)]Man(b1-4)GlcNAc(b1-4)[Fuc(a1-6)]GlcNAc", "procedure,_shortened": "as §1"}, "[9]": {"target": "Gal(b1-4)GlcNAc(b1-2)[Gal(b1-4)GlcNAc(b1-6)]Man(a1-6)[GlcNAc(b1-4)][Gal(b1-4)GlcNAc(b1-2)Man(a1-3)]Man(b1-4)GlcNAc(b1-4)GlcNAc", "procedure,_shortened": "as §1"}, "[10]": {"target": "Gal(b1-4)GlcNAc(b1-2)[Gal(b1-4)GlcNAc(b1-6)]Man(a1-6)[GlcNAc(b1-4)][Gal(b1-4)GlcNAc(b1-2)[Gal(b1-4)GlcNAc(b1-4)]Man(a1-3)]Man(b1-4)GlcNAc(b1-4)[Fuc(a1-6)]GlcNAc", "procedure,_shortened": "as §1"}, "[11]": {"target": "Gal(b1-4)GlcNAc(b1-3)Gal(b1-3)GalNAc", "procedure,_shortened": "as §1"}, "[12]": {"target": "Gal(b1-4)GlcNAc(b1-3)Gal(b1-3)GlcNAc", "procedure,_shortened": "as §1"}, "[13]": {"target": "Gal(b1-4)GlcNAc(b1-3)Gal(b1-4)Glc", "procedure,_shortened": "as §1"}, "[14]": {"target": "Gal(b1-4)GlcNAc(b1-3)Gal(b1-4)GlcNAc", "procedure,_shortened": "as §1"}, "[15]": {"target": "Gal(b1-4)GlcNAc(b1-3)Gal(b1-4)GlcNAc(b1-2)Man(a1-3)[Gal(b1-4)GlcNAc(b1-3)Gal(b1-4)GlcNAc(b1-2)Man(a1-6)]Man(b1-4)GlcNAc(b1-4)GlcNAc", "procedure,_shortened": "as §1"}, "[16]": {"target": "Gal(b1-4)GlcNAc(b1-3)Gal(b1-4)GlcNAc(b1-2)Man(a1-3)[Gal(b1-4)GlcNAc(b1-3)Gal(b1-4)GlcNAc(b1-2)Man(a1-6)]Man(b1-4)GlcNAc(b1-4)[Fuc(a1-6)]GlcNAc", "procedure,_shortened": "as §1"}, "[17]": {"target": "Gal(b1-4)GlcNAc(b1-3)Gal(b1-4)GlcNAc(b1-2)[Gal(b1-4)GlcNAc(b1-3)Gal(b1-4)GlcNAc(b1-6)]Man(a1-6)[Gal(b1-4)GlcNAc(b1-3)Gal(b1-4)GlcNAc(b1-2)Man(a1-3)]Man(b1-4)GlcNAc(b1-4)GlcNAc", "procedure,_shortened": "as §1"}, "[18]": {"target": "Gal(b1-4)GlcNAc(b1-3)Gal(b1-4)GlcNAc(b1-2)[Gal(b1-4)GlcNAc(b1-3)Gal(b1-4)GlcNAc(b1-6)]Man(a1-6)[Gal(b1-4)GlcNAc(b1-3)Gal(b1-4)GlcNAc(b1-2)Man(a1-3)]Man(b1-4)GlcNAc(b1-4)[Fuc(a1-6)]GlcNAc", "procedure,_shortened": "as §1"}, "[19]": {"target": "Gal(b1-4)GlcNAc(b1-3)Gal(b1-4)GlcNAc(b1-3)Gal(b1-4)GlcNAc", "procedure,_shortened": "as §1"}, "[20]": {"target": "Gal(b1-4)GlcNAc(b1-3)Gal(b1-4)GlcNAc(b1-3)Gal(b1-4)GlcNAc(b1-2)Man(a1-3)[Gal(b1-4)GlcNAc(b1-3)Gal(b1-4)GlcNAc(b1-3)Gal(b1-4)GlcNAc(b1-2)Man(a1-6)]Man(b1-4)GlcNAc(b1-4)GlcNAc", "procedure,_shortened": "as §1"}, "[21]": {"target": "Gal(b1-4)GlcNAc(b1-3)Gal(b1-4)GlcNAc(b1-3)Gal(b1-4)GlcNAc(b1-2)Man(a1-3)[Gal(b1-4)GlcNAc(b1-3)Gal(b1-4)GlcNAc(b1-3)Gal(b1-4)GlcNAc(b1-2)Man(a1-6)]Man(b1-4)GlcNAc(b1-4)[Fuc(a1-6)]GlcNAc", "procedure,_shortened": "as §1"}, "[22]": {"target": "Gal(b1-4)GlcNAc(b1-3)Gal(b1-4)GlcNAc(b1-3)Gal(b1-4)GlcNAc(b1-2)[Gal(b1-4)GlcNAc(b1-3)Gal(b1-4)GlcNAc(b1-3)Gal(b1-4)GlcNAc(b1-6)]Man(a1-6)[Gal(b1-4)GlcNAc(b1-3)Gal(b1-4)GlcNAc(b1-3)Gal(b1-4)GlcNAc(b1-2)Man(a1-3)]Man(b1-4)GlcNAc(b1-4)[Fuc(a1-6)]GlcNAc", "procedure,_shortened": "as §1"}},
  "note": "The other results are listed elsewhere or left out.",
  "data": [
    {"binder": "B1", "values": [
      {"measurement": "glycan array binding signal (z-score)", "setting": "[1]", "value": -0.282},
      {"measurement": "glycan array binding signal (z-score)", "setting": "[2]", "value": 0.098},
      {"measurement": "glycan array binding signal (z-score)", "setting": "[3]", "value": -0.263},
      {"measurement": "glycan array binding signal (z-score)", "setting": "[4]", "value": -0.175},
      {"measurement": "glycan array binding signal (z-score)", "setting": "[5]", "value": -0.021},
      {"measurement": "glycan array binding signal (z-score)", "setting": "[6]", "value": -0.008},
      {"measurement": "glycan array binding signal (z-score)", "setting": "[7]", "value": -0.016},
      {"measurement": "glycan array binding signal (z-score)", "setting": "[8]", "value": -0.115},
      {"measurement": "glycan array binding signal (z-score)", "setting": "[9]", "value": -0.016},
      {"measurement": "glycan array binding signal (z-score)", "setting": "[10]", "value": -0.186},
      {"measurement": "glycan array binding signal (z-score)", "setting": "[11]", "value": -0.152},
      {"measurement": "glycan array binding signal (z-score)", "setting": "[12]", "value": -0.155},
      {"measurement": "glycan array binding signal (z-score)", "setting": "[13]", "value": -0.18},
      {"measurement": "glycan array binding signal (z-score)", "setting": "[14]", "value": -0.235},
      {"measurement": "glycan array binding signal (z-score)", "setting": "[15]", "value": 2.97},
      {"measurement": "glycan array binding signal (z-score)", "setting": "[16]", "value": 0.674},
      {"measurement": "glycan array binding signal (z-score)", "setting": "[17]", "value": 0.372},
      {"measurement": "glycan array binding signal (z-score)", "setting": "[18]", "value": -0.084},
      {"measurement": "glycan array binding signal (z-score)", "setting": "[19]", "value": -0.05},
      {"measurement": "glycan array binding signal (z-score)", "setting": "[20]", "value": 2.45},
      {"measurement": "glycan array binding signal (z-score)", "setting": "[21]", "value": 0.063},
      {"measurement": "glycan array binding signal (z-score)", "setting": "[22]", "value": 0.448}
    ]}
  ]
}
